In PubChem BioAssay AID1347165 (National Center for Advancing Translational Sciences (NCATS), 2019):
“And” between values parts separate entries of the source, which are not always exact repeats. Equal values may be shown once. Screen size: about 220,000 compounds; about 5,700 (2.6%) were called active. Inconclusive means that the source gave no clear call. Such entries were picked first, then a sample of the others. Calls come from the whole dose curve; as a rule, active = well fitted inhibition curve with a large enough effect; inconclusive = small, poorly fitted or top-dose-only effect; inactive = no such curve, though single readings can be large or run the other way. Where the call is inconclusive, the potency comes from a doubtful curve fit.

target: Lysine-specific demethylase 5B (Homo sapiens) (UniProt Q9UGL1); experiment: Primary screen for KDM5B Histone Demethylases FDH-coupled qHTS; conditions: FDH-coupled NADH fluorescence (FDH is formaldehyde dehydrogenase); activity change, negative = inhibition: at 57.7 µM (top of the series) unless noted; note: nearly all actives have a fitted effect of over 70% in size; for activity change, negative = inhibition: 0% is about no effect
Sequence of UniProt Q9UGL1 (Q9UGL1 whole entry, looked up): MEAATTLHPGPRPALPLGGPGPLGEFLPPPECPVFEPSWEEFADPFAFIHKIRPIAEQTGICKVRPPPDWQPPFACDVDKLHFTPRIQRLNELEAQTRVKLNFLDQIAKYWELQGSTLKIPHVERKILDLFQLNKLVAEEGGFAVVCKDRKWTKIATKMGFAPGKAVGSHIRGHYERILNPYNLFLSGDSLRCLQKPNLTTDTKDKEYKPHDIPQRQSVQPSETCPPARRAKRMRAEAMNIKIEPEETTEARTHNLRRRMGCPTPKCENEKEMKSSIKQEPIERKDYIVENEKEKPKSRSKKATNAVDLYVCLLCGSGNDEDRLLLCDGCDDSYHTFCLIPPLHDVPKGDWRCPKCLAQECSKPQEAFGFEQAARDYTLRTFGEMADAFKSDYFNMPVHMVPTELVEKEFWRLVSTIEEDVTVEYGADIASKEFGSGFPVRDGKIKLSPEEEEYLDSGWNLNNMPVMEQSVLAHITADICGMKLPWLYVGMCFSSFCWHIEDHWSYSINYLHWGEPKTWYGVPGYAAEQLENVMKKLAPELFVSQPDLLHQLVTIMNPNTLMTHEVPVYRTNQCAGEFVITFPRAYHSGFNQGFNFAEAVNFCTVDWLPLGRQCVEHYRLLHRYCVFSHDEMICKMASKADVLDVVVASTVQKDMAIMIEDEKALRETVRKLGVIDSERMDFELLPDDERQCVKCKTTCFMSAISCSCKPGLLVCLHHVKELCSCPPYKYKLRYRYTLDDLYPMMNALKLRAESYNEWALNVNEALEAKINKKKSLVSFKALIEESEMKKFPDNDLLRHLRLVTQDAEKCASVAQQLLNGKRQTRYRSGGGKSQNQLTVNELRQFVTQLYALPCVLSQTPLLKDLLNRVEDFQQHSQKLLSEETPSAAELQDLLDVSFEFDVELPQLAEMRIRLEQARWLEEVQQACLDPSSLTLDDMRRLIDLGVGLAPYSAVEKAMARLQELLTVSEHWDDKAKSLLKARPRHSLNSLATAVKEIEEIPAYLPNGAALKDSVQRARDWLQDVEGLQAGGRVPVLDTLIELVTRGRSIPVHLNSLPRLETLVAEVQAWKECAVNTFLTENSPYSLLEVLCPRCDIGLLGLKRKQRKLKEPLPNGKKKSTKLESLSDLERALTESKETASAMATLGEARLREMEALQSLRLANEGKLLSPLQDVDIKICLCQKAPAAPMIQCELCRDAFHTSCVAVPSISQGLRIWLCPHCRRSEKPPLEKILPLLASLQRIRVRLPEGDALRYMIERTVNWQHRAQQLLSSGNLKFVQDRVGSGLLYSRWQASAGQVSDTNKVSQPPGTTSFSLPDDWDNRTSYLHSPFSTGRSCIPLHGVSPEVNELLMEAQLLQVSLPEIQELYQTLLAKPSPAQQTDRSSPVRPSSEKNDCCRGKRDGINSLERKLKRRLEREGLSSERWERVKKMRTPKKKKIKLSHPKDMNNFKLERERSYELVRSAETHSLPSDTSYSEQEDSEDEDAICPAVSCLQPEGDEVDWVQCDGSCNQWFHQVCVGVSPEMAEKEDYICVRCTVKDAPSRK
How it was run: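 Measured: NADH fluorescence change, 30 min, RT. System: KDM5BΔAP 200 nM final, H3K4me3 peptide, α-KG, Fe(II), ascorbate, NAD⁺ plus FDH, pH 7.5 HEPES. Compounds: titrated, 10 min pre-incubation with enzyme.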
Potency is the fitted concentration of half-maximal effect; tags give direction and shape of the fitted curve.

SMILES	activity change, negative = inhibition	Potency
COc1cc(C(=O)NCc2nc3ccccc3n2C(C)C)cc(OC)c1OC	inactive: 17.9%	–
Cc1nc2nc(CC(=O)Nc3ccccc3F)nn2c(C)c1Cc1ccc(Cl)cc1	inactive: 0.633%	–
CCN1CCc2nc3sc(C(=O)Nc4ccccc4OC(F)(F)F)c(N)c3cc2C1	–	inconclusive: 25.1 µM [inhibitor, partial curve, poor fit]
COC1CCC(C(=O)N2CC(COc3ccccc3)C3(C2)CN(c2ccccc2)C3)CC1 (stereo unspecified)	–	inconclusive: 63.1 µM [inhibitor, partial curve, poor fit]
COCc1cn(C[C@H]2C[C@@H](NS(=O)(=O)CC(C)C)[C@H](O)[C@@H]2O)nn1	–	inconclusive: 39.8 µM [inhibitor, partial curve, poor fit]
O=C(c1cc2c(s1)-c1ccc(Cl)cc1SC2)N1CCC(Cc2ccccc2)CC1	–	inconclusive: 20 µM [inhibitor, partial curve, poor fit]
CCN1c2cc(C(=O)Nc3cccc(OC)c3)ccc2C(=O)N2CCCCC21 (stereo unspecified)	–	inconclusive: 22.4 µM [inhibitor, partial curve, poor fit]
CC(C)CC(=O)N1CCOc2ccc(CN3CCc4ccccc4C3)cc2C1	–	inconclusive: 28.2 µM [inhibitor, partial curve, poor fit]
COc1ccc(C(=O)NCCc2csc(-c3ccc(Cl)cc3)n2)c(OC)c1	–	inconclusive: 39.8 µM [inhibitor, single point]
Cc1cc(-c2nc3ccncc3[nH]2)c(C)[nH]1	–	active: 100 µM and active: 31.6 µM
CCOc1ccc(CNC(=O)c2cc3cc(S(=O)(=O)N4CCCCC4)ccc3n2C)cc1	–	inconclusive: 44.7 µM [inhibitor, single point]
CCC(=O)N1CCC2(CC1)NCCc1c2[nH]c2ccccc12	–	inconclusive: 31.6 µM [inhibitor, partial curve]
COc1ccc(F)c(CN2CCCN3CCC[C@H]3C2)c1Cl	–	inconclusive: 17.8 µM [inhibitor, single point]
COCCNC(=O)[C@@H]1C[C@H](Oc2cccnc2)CN1C(=O)c1ocnc1C	–	inconclusive: 22.4 µM [inhibitor, partial curve, poor fit]
Cc1cc(C)c(/C=N/NC(=O)c2ccccc2)c(C)c1	–	inconclusive: 15.8 µM [inhibitor, partial curve, poor fit]
CCn1nc(C(=O)Nc2ccc3c(c2)OCO3)c2ccccc2c1=O	inactive: -28.4%	–
COc1nccnc1NC1CCN(C(=O)Cc2c(C)noc2C)CC1	–	active: 31.6 µM
O=C(c1ccccn1)N1CCn2c(nn(-c3ccc(F)cc3F)c2=O)C1	–	inconclusive: 17.8 µM [inhibitor, partial curve, poor fit]
O=C(COc1ccccc1)NC1CCCc2c1[nH]c1ccc(F)cc21 (stereo unspecified)	–	inconclusive: 10 µM [inhibitor, partial curve]
O=C(NC[C@H]1OC[C@@H](N(Cc2cccs2)Cc2cccs2)[C@@H]1O)c1ccccc1	–	inconclusive: 56.2 µM [inhibitor, partial curve, poor fit]
Cc1oc(-c2cccs2)nc1CC(=O)N(Cc1ccc(C(=O)NC2CC2)cc1)C1CC1	–	inconclusive: 17.8 µM [inhibitor, partial curve, poor fit]
CC(C)(C)C(=O)NC(=S)NNC(=O)c1ccc(Cl)cc1Cl	–	inconclusive: 20 µM [inhibitor, single point]

SMILES	activity change, negative = inhibition	Potency
C=CCN(C(=O)CCc1ccccc1OC)c1nc(-c2ccc(S(C)(=O)=O)cc2)cs1	–	inconclusive: 14.1 µM [inhibitor, partial curve, poor fit]
CCOC(=O)Nc1ccc(OC)cc1	inactive: 16.5%	–
COC(=O)Cn1c(=O)n(CCc2ccccc2)c(=O)c2sc3c(c21)COC(C)(C)C3	inactive: 16.7%	–
Cn1nccc1-c1ccc2ncn(-c3ccccc3)c(=O)c2n1	–	active: 31.6 µM
Cc1cc(N2CCC(N3CCCC(C(=O)NCCc4ccccc4)C3)CC2)ncn1 (stereo unspecified)	–	inconclusive: 17.8 µM [inhibitor, single point]
CCn1cc(-c2ccc(F)cc2)cc1C(=O)NCCOC	–	inconclusive: 31.6 µM [inhibitor, partial curve, poor fit]
CC(NC(=O)c1ccccc1F)c1cc2ccccc2o1 (stereo unspecified)	inactive: 12.8%	–
COc1cccc(C2CC(=O)Nc3nc(N)sc32)c1OCC(C)C (stereo unspecified)	–	inconclusive: 22.4 µM [inhibitor, partial curve, poor fit]
COc1ccc(/C=N/NC(=O)c2ccc(NS(=O)(=O)c3cccs3)cc2)cc1	–	inconclusive: 39.8 µM [inhibitor, single point]
N#Cc1ccc(CC(=O)N2CC(CNc3cccnc3)C3(C2)CN(c2ccccc2)C3)cc1 (stereo unspecified)	–	inconclusive: 56.2 µM [inhibitor, single point]
COc1ccc(-c2nnc3ccc(N4CCc5ccccc5CC4)nn23)nc1	–	inconclusive: 39.8 µM [inhibitor, single point]
CC(C)(C)OC(=O)N/N=C/c1ccc(Cl)c(Cl)c1	inactive: 26.6%	–
CCN(CC)C(=O)Oc1ccc2cc(-c3ccccc3)c(=O)oc2c1	–	inconclusive: 14.1 µM [inhibitor, partial curve, poor fit]
Cc1cc(C(=O)NCc2ccco2)c2cccc(-c3ccccc3)c2n1	–	inconclusive: 28.2 µM [inhibitor, single point]
CCC1CN(Cc2cn(-c3ccccc3)nc2-c2ccc(OC)cc2F)CCO1 (stereo unspecified)	–	inconclusive: 28.2 µM [inhibitor, partial curve, poor fit]
CCN(CC)CCNC(=O)c1cc2c(-c3cccc(OC)c3)nn(C)c2s1	–	inconclusive: 17.8 µM [inhibitor, partial curve, poor fit]
COc1ccc2[nH]cc(C(C(=O)O)N3CCN(C(C)=O)CC3)c2c1 (stereo unspecified)	inactive: 1.72%	–
CC(C)c1cccc(NC(=O)C2CCN(C(=O)c3ncn4c3COC(c3ccccc3)C4)CC2)c1 (stereo unspecified)	inactive: 0.224%	–
COc1cc(CNC(=O)c2cc3cn(C(C)C)cc3s2)cc(OC)c1	–	inconclusive: 15.8 µM [inhibitor, partial curve, poor fit]
CCn1nccc1C(=O)N1CCCC(c2nn[nH]n2)C1 (stereo unspecified)	–	inconclusive: 28.2 µM [inhibitor, single point]
Clc1sc(C=Nc2cccc3ccccc23)c(Cl)c1Cl	–	inconclusive: 28.2 µM [inhibitor, partial curve, poor fit]
COc1ccccc1-c1nn(CCC(=O)Nc2ccccc2)c2nc(C)cc(C)c12	–	inconclusive: 35.5 µM [inhibitor, partial curve, poor fit]

SMILES	activity change, negative = inhibition	Potency
COc1ccc(C(C)=O)cc1COC(=O)c1c(C)nn(-c2ccccc2)c1C	–	inconclusive: 39.8 µM [inhibitor, single point]
Cc1ccc2nc(-c3ccc(C)s3)c(Nc3ccc4c(c3)OCCO4)n2c1	–	inconclusive: 15.8 µM [inhibitor, partial curve, poor fit]
CCC(C(=O)Nc1nc2ccccc2s1)n1cnc2c1c(=O)n(C)c(=O)n2C (stereo unspecified)	inactive: 19%	–
Cc1oc(C(O)c2cccc(O)c2)nc1C(=O)Nc1ccccc1 (stereo unspecified)	–	inconclusive: 35.5 µM [inhibitor, partial curve, poor fit]
Cc1oc2cc(OS(C)(=O)=O)ccc2c(=O)c1-c1ccc(Cl)cc1	inactive: 3.92%	–
COc1ccccc1C(=O)Nc1ccc(-c2cc(C(F)(F)F)nn2-c2ccccc2)cc1	–	inconclusive: 28.2 µM [inhibitor, partial curve, poor fit]
Cc1ccc(-c2ccc(CN)cc2)cc1Cl	–	inconclusive: 89.1 µM [inhibitor, partial curve]
O=C(c1ccc2c(c1)OCO2)N1CCN(c2cc(-c3ccc(F)cc3)[nH]n2)CC1	inactive: -17.3%	–
CC(C)c1ccc(/C=C(/C#N)c2nc3ccccc3[nH]2)cc1	inactive: -14.6%	–
O=C(C[C@@H]1CCNC[C@@H]1Cc1cc(COc2ccccc2)on1)NCc1ccco1	–	inconclusive: 39.8 µM [inhibitor, partial curve]
O=C(CCC1CCCN(Cc2cc3ccccc3s2)C1)Nc1ccccc1F (stereo unspecified)	–	inconclusive: 35.5 µM [inhibitor, single point]
O=C(O)C[C@@H]1CCN(C(=O)C2CCCCC2)C[C@@H]1CC1=NCCc2ccccc21	–	inconclusive: 25.1 µM [inhibitor, partial curve]
COc1ccccc1N1CCN(C(=O)Cn2c(=O)nc(-c3ccccc3)c3ccccc32)CC1	–	inconclusive: 39.8 µM [inhibitor, single point]
O[C@H]1CC[C@@H](Cc2cc(-c3ccc(F)cc3)on2)O[C@@H]1CNCc1ccccn1	inactive: 215% [at 86.2 µM]	–
COc1ccc(Cl)cc1NC(=O)Cn1c(=O)n(Cc2ccc(F)cc2)c(=O)c2cccnc21	–	inconclusive: 44.7 µM [inhibitor, single point]
Cc1ccc(C2=NC3(CCN(C(=O)COc4ccc(Cl)cc4)CC3)ON2)cc1	inactive: 5.68%	–
O=C(NC1CCN(c2cc(-c3cccs3)[nH]n2)C1)c1cc2ccccc2[nH]1 (stereo unspecified)	–	inconclusive: 14.1 µM [inhibitor, partial curve, poor fit]
Cc1c(C(=O)N(C)c2ccccc2)sc2nc3n(c(=O)c12)CCCC3	inactive: -11%	–
O=C(N[C@@H]1CN(Cc2ccc(F)cc2)C[C@H]1CO)c1cccnc1	inactive: 20.6%	–
c1cncc(-c2nc(NC3CCN(C4CC4)CC3)c3ccccc3n2)c1	inactive: 0.728%	–
Cc1ccc(C(=O)N2CCN(c3nnc4cccc(C)n34)CC2)cc1F	–	active: 28.2 µM
CSc1ccc(NC(=O)c2ccc3c(c2)CCC3)cc1	inactive: 74.9%	–
